Experimental data: PubChem BioAssay AID651820 (National Center for Advancing Translational Sciences (NCATS), 2012)
About 12,000 (3.5%) of roughly 340,000 compounds were called active. This list was built around the results that the source calls inconclusive (neither active nor inactive); the mix of calls is not that of the screen. The call rests on the fitted dose curve; in most records, active means well fitted inhibition curve with a large enough effect; inconclusive means small, poorly fitted or top-dose-only effect, or another doubt; inactive means no such curve, though single readings can be large or run the other way. Potencies of inconclusive entries are left out as doubtful fits.

Experiment: qHTS Assay for Inhibitors of Hepatitis C Virus (HCV)
Conditions: Huh7.5.1 HCVcc-Cre (HCVcc is cell-culture hepatitis C virus) infection, luciferase reporter, 44 h; series mostly up to 41.8 µM
Procedure, shortened: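 Infectious HCV cell culture screen: compound-treated cells (1,000/well, pre-plated 4 h) are infected with HCVcc-Cre at roughly 0.5 moi and grown 44 h. Infection is quantified by luciferase signal after 15 min substrate incubation at room temperature.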
Potency means the concentration at half of the fitted maximal effect; tags describe the fitted curve by direction and shape.

Row | SMILES | Potency
1 | CCOC(=O)SC1=N/C(=C\c2ccc(N(C)C)cc2)C(=O)S1 | inactive
2 | Cc1cc(C)cc(SCc2noc(C(=O)NCC3CC3)c2C(=O)NCC2CC2)c1 | inconclusive [inhibitor, full curve]
3 | Cc1ccc(S/C=C\C(=O)c2ccccc2)cc1 | inconclusive [inhibitor, single point]
4 | COc1cccc(NC(=O)CSc2c3c(nc4ccccc24)CCCC3)c1 | inconclusive [inhibitor, partial curve]
5 | Cc1ccc2c(c1)CCCN2C(=O)c1cc(C)c(C)s1 | inconclusive [inhibitor, single point]
6 | COc1ccc(NC(=O)c2cc(-c3ccc(C)o3)nc3ccccc23)c(OC)c1 | active: 10 µM
7 | Cc1ccc(-c2nnc3c4ccccc4c(C)nn23)cc1S(=O)(=O)N1CCN(CCO)CC1 | inactive
8 | CSc1nc(SCCO)c2sc3nc(-c4ccco4)c4c(c3c2n1)CC(C)(C)OC4 | inconclusive [inhibitor, partial curve]
9 | COc1cc(/C=C/C(=O)NCCn2c(C)cc3ccccc32)cc(OC)c1OC | inconclusive [inhibitor, partial curve]
10 | CCOC(=O)c1c(CN2CCOCC2)n(-c2ccccc2)c2cc(Br)c(OC)cc12 | inconclusive [inhibitor, partial curve]
11 | O=C(CNC(=O)c1ccc(Cl)cc1)NNc1c(F)c(F)cc(F)c1F | inconclusive [inhibitor, partial curve]
12 | CC(=O)c1ccc(N2CCN(c3ccc(C(N)=O)cc3[N+](=O)[O-])CC2)cc1 | inactive
13 | COc1ccsc1C(=O)NCCN1CCOCC1 | inactive
14 | CC(C)c1ccccc1NC(=O)COC(=O)c1cc([N+](=O)[O-])ccc1N1CCOCC1 | inconclusive [inhibitor, full curve]
15 | CCN(CC)S(=O)(=O)c1ccc(C)c(NC(=O)CNCCN(C(C)C)C(C)C)c1 | inactive
16 | O=C(/C=C/c1ccc(S(=O)(=O)N2CCOCC2)cc1)Nc1cc(F)ccc1F | inconclusive [inhibitor, partial curve]
17 | CC1CCCc2sc3nc(N4CCN(CCO)CC4)n4ncnc4c3c21 (stereo unspecified) | inconclusive [inhibitor, partial curve]
18 | CC(C)(C)C1c2[nH]c3ccccc3c2CCN1CCCn1cccn1 (stereo unspecified) | inactive
19 | CC(C)[C@H](NC(=O)OCc1ccccc1)C(=O)OCC(=O)N1CCCCC1 | inactive
20 | C=CCc1cccc(Cl)c1OCCCNC1CCCC1 | active: 10 µM
21 | Cc1ccc(NC(=O)c2ccc(S(=O)(=O)NCC3CCCO3)cc2)cc1C (stereo unspecified) | inconclusive [inhibitor, single point]
22 | Cc1cc(N=Nc2ccc3ccccc3c2)ccc1O | inconclusive [inhibitor, single point]
23 | CS(=O)(=O)N(CC(=O)NCCC1=CCCCC1)C1CCCCC1 | inconclusive [inhibitor, single point]

Row | SMILES | Potency
24 | COc1cc(-c2nc(-c3ccc(NC(=O)c4ccc5c(c4)OCO5)cc3)no2)cc(OC)c1OC | inconclusive [inhibitor, full curve]
25 | FC(F)Oc1ccc(-n2cc(-c3ccccc3)[n+]3c2CCCCC3)cc1 | inactive
26 | COC(=O)c1sc2ccccc2c1NC(=O)c1cccs1 | inconclusive [inhibitor, single point]
27 | Cc1cc(NCCCO)n2nc(-c3cccs3)cc2n1 | inconclusive [inhibitor, single point]
28 | Cc1cccc(NC(=O)N2CCCC(CNC(=O)c3ccccc3Cl)C2)c1C (stereo unspecified) | inactive
29 | C=CCNC(=O)C1CCC(CNc2nc(=S)[nH]c3ccccc23)CC1 (stereo unspecified) | inconclusive [inhibitor, single point]
30 | Cc1ccc(CN2CCN(Cc3ccccc3)CC2)cc1 | inactive
31 | CCSCCOC(=O)C1=C(C)N(C)C(=O)NC1c1ccc2c(c1)OCO2 (stereo unspecified) | inactive
32 | COc1cc(/C=N/NC(=S)NCCN2CCOCC2)cc(OC)c1O | inconclusive [inhibitor, partial curve]
33 | Cc1nnc(NC(=O)C(C)Sc2nnc(CCNC(=O)c3ccccc3F)n2C)s1 (stereo unspecified) | inactive
34 | COc1cccc(/C=N/Nc2ccc([N+](=O)[O-])cn2)c1O | active: 1.12 µM
35 | Cc1ccc(O)c(NC(=S)NC(=O)COc2ccc(Br)cc2)c1 | inconclusive [inhibitor, single point]
36 | Cc1ccc(C(C)C)c(OCC(=O)NNC(=O)CC2OC(=O)c3ccccc32)c1 (stereo unspecified) | inconclusive [inhibitor, partial curve]
37 | CCOCCCNC(=O)C(c1ccc(OC)cc1)N(Cc1ccc2c(c1)OCO2)C(=O)c1cnccn1 (stereo unspecified) | inconclusive [inhibitor, single point]
38 | Cc1cc2cc(CN(CC3CCCO3)C(=S)NCc3ccco3)c(=O)[nH]c2cc1C (stereo unspecified) | inactive
39 | COc1cc(C(=O)CCN2CCC(c3ccccc3)C2)cc(OC)c1OC (stereo unspecified) | inconclusive [inhibitor, single point]
40 | Cc1ccc2c(c1)C(c1ccccc1)N(C(=O)c1ccccc1[N+](=O)[O-])CC(=O)N2 (stereo unspecified) | inconclusive [inhibitor, single point]
41 | COc1ccc(NC(=O)CNC(=O)c2nn(-c3ccc(OC)c(Cl)c3)c(=O)c3ccccc23)c(OC)c1 | inconclusive [inhibitor, full curve, poor fit]
42 | Cc1ccc(CCNC(=O)CCS(=O)(=O)c2ccc(Br)cc2)cc1 | inactive
43 | O=C(Nc1cc(S(=O)(=O)N2CCOCC2)ccc1Cl)c1cc2ccccc2o1 | inconclusive [inhibitor, full curve, poor fit]
44 | Cc1ccc(Nc2cc(C)nc(-c3ccccc3)n2)cc1 | inactive
45 | Cc1ccc(S(=O)(=O)N2CCCCC2)cc1NC(=O)CSc1nnc(N)s1 | inconclusive [inhibitor, single point]
46 | CCCn1c(N)c(N(CCOC)C(=O)c2cccc(C(F)(F)F)c2)c(=O)[nH]c1=O | inactive
